Reference: PMC6451091
The other results are listed elsewhere or left out. For part of these data: At the low end of the ranking the order means little. For part of these data: Measured with an extract: partners may take part in the binding.

Key:
Conditions in all cases: 20 mM HEPES pH 7.9, 100 mM NaCl, 1 mM DTT, 0.2 mg/mL BSA, 0.02% Triton X-100, 2% milk, 0.4 mg/mL salmon testes DNA; 1 h; temperature not stated; high values mean tight binding; double strand, one strand shown; sequences stand for … in GCCTAGCAC…GTGCTAGGTCTTGATTCGCTTGACGCTGCTG
PU.1 (IVT) = PU.1 (IVT) (UniProt P17947); experiment: protein-binding microarray (PBM)
[1] = target: PU.1 (endogenous, THP-1 nuclear extract) (UniProt P17947); experiment: nuclear extract protein-binding microarray (nextPBM)
[2] = target: T1, FLI1 (endogenous, THP-1 nuclear extract) (UniProt Q01543); experiment: as above
T1 sequence: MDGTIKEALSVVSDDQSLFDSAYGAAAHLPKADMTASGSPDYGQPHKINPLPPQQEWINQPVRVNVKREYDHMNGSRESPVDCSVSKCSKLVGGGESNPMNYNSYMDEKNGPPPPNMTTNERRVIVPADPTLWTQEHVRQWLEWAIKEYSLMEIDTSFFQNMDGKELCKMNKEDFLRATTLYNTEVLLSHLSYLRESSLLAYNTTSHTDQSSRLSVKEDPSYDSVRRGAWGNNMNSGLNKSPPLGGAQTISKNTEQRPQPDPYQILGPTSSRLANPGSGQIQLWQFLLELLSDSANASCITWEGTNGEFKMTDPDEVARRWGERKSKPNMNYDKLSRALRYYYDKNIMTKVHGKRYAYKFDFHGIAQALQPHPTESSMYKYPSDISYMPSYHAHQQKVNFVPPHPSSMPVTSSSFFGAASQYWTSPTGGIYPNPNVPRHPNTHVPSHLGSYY

| Sequence | binding signal (PU.1 (IVT)) | binding signal [1] | binding signal [2] |
| --- | --- | --- | --- |
| CACAAGGGGAAGTACTGTGC | 5 z-score | 5.42 z-score | 1.92 z-score |
| GGAAAGGGGAAGTGGGCACC | 7.25 z-score | 6.91 z-score | 3.32 z-score |
| TAAAACAGGAAGTCCCATAG | 6.97 z-score | 7.02 z-score | 4.63 z-score |
| TCTCAGAGGAACTGGCCCAG | 0.638 z-score | 1.16 z-score | 0.271 z-score |
| TAAGAAAGGAAGTGAGAAAG | 2.32 z-score | 1.87 z-score | 2.01 z-score |
| AAAAAAAGGAACTGGCCAGA | 4.2 z-score | 4.37 z-score | 1.38 z-score |
| CGAAAGAGGAAGTCCTCCTC | 7.41 z-score | 7.14 z-score | 3.47 z-score |
| AGAAAAGGGAAGTGAGTTAC | 7.29 z-score | 6.95 z-score | 3.01 z-score |
| GCAGGGAGGAAGTGCTCTGG | 3.98 z-score | 3.85 z-score | 2.83 z-score |
| TAAATGAGGAACTGAATTTT | 6.92 z-score | 6.62 z-score | 2.59 z-score |
| AAAAACAGGAAGTCCCATTT | 7.62 z-score | 7.27 z-score | 4.89 z-score |
| CAAATGAGGAACTGATGCGC | 6.12 z-score | 6.35 z-score | 1.89 z-score |
| GAAATGAGGAAATACTGTGA | 4.88 z-score | 4.74 z-score | 1.8 z-score |
| AATAAGAGGAAGTGCCTGGA | 7.02 z-score | 6.98 z-score | 3.48 z-score |
| CAGGCAAGGAACTACTGTGC | 1.06 z-score | 0.793 z-score | -0.115 z-score |
| AGAAAGAGGAAGTGCTGAGG | 7.75 z-score | 7.2 z-score | 3.79 z-score |
| CAAATCAGGAACTGATGCGG | 3.39 z-score | 3.84 z-score | 1.26 z-score |
| TAAATGGGGAAGTGCTTGAC | 6.87 z-score | 6.71 z-score | 2.81 z-score |
| AAGAAGAGGAAGTGTTTACA | 6.43 z-score | 6.68 z-score | 3.52 z-score |
| GAAAACAGGAAGTCCCGTAG | 7.26 z-score | 7.19 z-score | 4.52 z-score |
| TGGGAGAGGAAGTGAAATCA | 4.23 z-score | 5.18 z-score | 2.96 z-score |
| GAAAAGAGGAAGTCAAATTA | 8.43 z-score | 7.63 z-score | 3.87 z-score |
| TGAAAGTGGAAGTGAATGTT | 3.68 z-score | 2.84 z-score | 1.66 z-score |
| CACATGAGGAACTGATGCGG | 2.94 z-score | 2.72 z-score | 0.808 z-score |
| GAGAGGAGGAAGTGTTTATG | 4.59 z-score | 4.1 z-score | 2.67 z-score |

| Sequence | binding signal (PU.1 (IVT)) | binding signal [1] | binding signal [2] |
| --- | --- | --- | --- |
| GCAAAGAGGAAGTGGGGTTG | 6.71 z-score | 6.77 z-score | 3.9 z-score |
| AAAATGAGGAAGTCAACAGC | 7.67 z-score | 7.31 z-score | 3.1 z-score |
| CAAATGAGGAACTGATGGGG | 5.63 z-score | 6.4 z-score | 1.51 z-score |
| CGGAGGAGGAAGTGTCTGTT | 4.94 z-score | 4.71 z-score | 3.02 z-score |
| GAAAACAGGAAGACCCATAG | 3.01 z-score | 3.32 z-score | 2.08 z-score |
| AAAAAAAGGAACTGGCTAGC | 4.5 z-score | 3.89 z-score | 1.58 z-score |
| CAGAAAGGGAAGTGGATGCT | 5.22 z-score | 5.32 z-score | 2.21 z-score |
| GAAATCAGGAAGTGAACTCT | 6.18 z-score | 6.49 z-score | 3.79 z-score |
| GAAAAGAGGAAGTCAAACCA | 8.22 z-score | 7.48 z-score | 3.92 z-score |
| AAAATGAGGAAGTCATTCTT | 8.35 z-score | 7.52 z-score | 4.39 z-score |
| ACAAAGAGGAAGTCCAAGTA | 6.13 z-score | 6.81 z-score | 3.07 z-score |
| GGAATAGGGAAGTCACTCTG | 6.06 z-score | 6.53 z-score | 2.66 z-score |
| CATTTGGGGAAGTGACCTTC | 5.59 z-score | 6.16 z-score | 2.15 z-score |
| TGTAGGGGGAAGTGTAGTTT | 3.74 z-score | 3.46 z-score | 1.79 z-score |
| GTAAAGGGGAAGTCACAAAA | 5.63 z-score | 6.29 z-score | 2.11 z-score |
| ACAAAAAGGAACAGTGCCCC | 0.616 z-score | 0.885 z-score | 0.152 z-score |
| GGGAAGGGGAAGTGGCTAAG | 5.24 z-score | 5.73 z-score | 2.56 z-score |
| GAAAAGAGGAAGTCAAAATA | 8.29 z-score | 7.32 z-score | 4.12 z-score |
| GACAAGAGGAAGTGCAAGAT | 4.87 z-score | 5.39 z-score | 2.8 z-score |
| TAAATGAGGAAGTGTGCTGT | 7.74 z-score | 7.25 z-score | 3.8 z-score |
| TAAAAGAGGAAGTGAAGAAA | 8.27 z-score | 7.3 z-score | 4.76 z-score |
| AAAATCAGGAAGTGTGAGTC | 5.55 z-score | 6.12 z-score | 2.86 z-score |
| AGAAAGGGGAAGTGACTGCT | 8.18 z-score | 7.35 z-score | 3.5 z-score |
| AGTGAGAGGAAGTGACTTGA | 4.54 z-score | 4.69 z-score | 3.12 z-score |
| AAGTAGAGGAACTGTTAGCC | 1.95 z-score | 1.62 z-score | 0.786 z-score |
